Among all 46,000 compounds or so, about 60 (0.1%) were called active. Inconclusive results (about 3%) are left out. The call rests on the fitted dose curve; in most records, active means well fitted inhibition curve with a large enough effect; inconclusive means small, poorly fitted or top-dose-only effect; inactive means no such curve, though single readings can be large or run the other way. The list shows a part of the results.

The source of these data is PubChem BioAssay AID1963576 (National Center for Advancing Translational Sciences (NCATS), 2024).

This assay can be described thus: Primary qHTS assay for Inhibitors of ovarian cancer metastasis using an organotypic tumor microenvironment (TME) model. Further: nearly all actives have a fitted effect of over 65% in size.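 On activity change, negative = inhibition: plate controls were DMSO wells for no effect and tomatine positive control wells for full effect.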 The note with it: SKOV3ip1-GFP adhesion/invasion on 3D omental model, fluorescence; series mostly up to 45.8 µM; activity change, negative = inhibition: at the top concentration. An outline of the steps:
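Adhesion/invasion was scored as fixed GFP-labeled SKOV3ip1 cell counts (488/509 nm), normalized to DMSO and tomatine controls. Cancer cells in serum-free medium, with four compound doses (0.36-46 umol/L), sat 2 hr at RT then 16 hr at 37 C on a 48 hr fibroblast/mesothelial/ECM culture.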
In general terms: Quantitative high-throughput screening tests each substance at several concentrations.
For the compound `CNC(=O)COc1ccc(NC(=O)c2ccc(-c3nn(C)c(=O)c4ccccc34)cc2)cc1`, the call was inactive.

In the case of `Cc1nn(S(=O)(=O)c2ccc(Cl)cc2)c(C)c1S(=O)(=O)N1CCCCCC1`, the outcome was inactive.

For the compound `CCOC(=O)c1c(NC(=O)c2cc(=O)c3c(C)cc(C)cc3o2)sc(C(C)=O)c1C`, the “activity change, negative = inhibition” value is inactive: -1.03%.

Turning to `CC(=O)Nc1nonc1-c1nnc(SCc2ccc(Cl)cc2)n1C`, the “activity change, negative = inhibition” value is inactive: -8.04%.

With `COc1cc(-c2noc(-c3cc(C(C)C)[nH]n3)n2)cc(OC)c1OC`, the “activity change, negative = inhibition” value is inactive: -5.95%.

`Cc1cc(C)c2c(-n3cccc3)c(C(=O)NCCCN3CCCCC3C)sc2n1` (configuration not stated): the “activity change, negative = inhibition” value was inactive: -8.98%.

Regarding `CCc1ccccc1Nc1ncnc2c1nc1n2CCCC1`, the “activity change, negative = inhibition” value was inactive: 3.06%.

As for `COc1cccc(C2C(C(=O)Nc3ccccc3OC)=C(C)Nc3nc4ccccc4n32)c1` (configuration not stated), the compound was classed as inactive.

For the compound `NS(=O)(=O)c1ccc(CCNC(=O)c2nc(SCc3ccccc3F)ncc2Cl)cc1`, the “activity change, negative = inhibition” value is inactive: -1.91%.

Take `COc1cccc(N2C(=O)N(CC(=O)NCc3cccc(OC)c3OC)c3ccccc3S2(=O)=O)c1`: the “activity change, negative = inhibition” value was inactive: 8.83%.

Consider `CCc1ccc(-n2c(-c3ccccc3)c(C)n3c4c(=O)n(C)c(=O)n(C)c4nc23)cc1`, for which the result was inactive.

For `Cc1cc(=O)c2cc(C(=O)Nc3ccccc3)ccc2[nH]1`, the “activity change, negative = inhibition” value was inactive: 9.22%.

Turning to `Cc1ccc2cccc(NC(=O)c3ccc(-c4ccc(Br)cc4)o3)c2n1`, the “activity change, negative = inhibition” value is inactive: 11.8%.

`Cc1ccc(-c2csc(/C(C#N)=C/c3ccccc3Cl)n2)cc1`: the result was inactive.

`Cc1cn2c(=O)cc(COc3ccccc3NC(=O)c3ccccc3C)nc2s1`: the call was inactive.

Turning to `CCCNC(=O)c1cnc2sc(N3CCCCC3)nn2c1=O`, the “activity change, negative = inhibition” value was inactive: 3.95%.

Consider `COc1ccc2oc(=O)c(C(=O)NCCc3c(C)[nH]c4ccc(Br)cc34)cc2c1`, for which the “activity change, negative = inhibition” value is inactive: 5.97%.

Consider `O=C(CSc1nnc(CNC(=O)c2ccccc2)n1-c1cccc(Cl)c1)Nc1ccccc1F`, for which the “activity change, negative = inhibition” value is inactive: -11.8%.

`CCOC(=O)c1c(C)oc2nc(C)nc(N3CCN(c4ccccc4)CC3)c12`: the “activity change, negative = inhibition” value is inactive: 14.5%.

With `COc1ccccc1N1CCN(C(=O)CCS(=O)(=O)c2cc(Br)cc3c2N(C(=O)C2CC2)CC3)CC1`, the “activity change, negative = inhibition” value was inactive: -7.28%.

Consider `O=C(Nc1ccc(F)cc1)c1cccn1-c1nnc(N2CCCCC2)s1`, for which the “activity change, negative = inhibition” value is inactive: -4.96%.

Consider `CCc1ccc(NC(=O)CSc2cn(CC(=O)N3CCCC3)c3ccccc23)cc1`, for which the “activity change, negative = inhibition” value was inactive: -5.84%.

`CCOCCCNC(=O)NC(CCC(C)C)c1c(-n2cccc2)sc2c1CCN(C)C2` (configuration not stated): the result was inactive.

`COc1ccc(CNC(=O)c2ccc(Cn3c(=O)c4cccn4c4cccnc43)cc2)cc1OC`: the “activity change, negative = inhibition” value was inactive: 5.29%.

In the case of `CCOc1ccccc1CNC(=O)c1ccc2nc(Cc3ccc(OC)cc3)oc2c1`, the call was inactive.

In the case of `O=C(Nc1cc(NC(=O)c2ccccc2Cl)ccc1Cl)c1ccccc1`, the “activity change, negative = inhibition” value is inactive: -6.35%.

Turning to `O=C(NCc1cccc(F)c1)C1CCN(C(=O)c2sccc2-n2cccc2)CC1`, the “activity change, negative = inhibition” value is inactive: -13.5%.
